The structures appear in SMILES notation. Values joined by “and” are separate entries in the source; they are usually repeats but may differ in a detail not shown here. Identical values can stand only once. Counter-ions that a name gives are not always drawn. ± gives the standard deviation of the averaged measurements. Over roughly 3,200 compounds, “nuclei count (viability) relative to DMSO” has its median near 99; the lowest 2% begin near 16. The list shows a part of the results.

Here are results for 78 compounds from the supplement of paper PMC8183993.

The experiment deals with U2OS. As to the kind of experiment: nuclei count (viability) relative to DMSO (% of DMSO); higher = more viable cells. Conditions: 10 µM; 24 h. How it is done: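 Primary image-based screen in U2OS cells: compounds at 10 uM for 24 h, then a 1 h o-propargyl-puromycin (OPP) pulse, click labelling, and high-throughput microscopy. Mean cytoplasmic OPP intensity and nuclei count were normalised to DMSO wells within each plate (DMSO = 100) and averaged over triplicate plates.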
Compound `O=C(N[C@H](CO)[C@H](O)c1ccc([N+](=O)[O-])cc1)C(Cl)Cl` [Chloramphenicol] displayed a nuclei count of 108.

As for `CN(C)CCC=C1c2ccccc2COc2ccccc21` [Doxepin hydrochloride], the nuclei count turned out to be 96.1 ± 1.

The compound `CN1CCC[C@@H]1Cc1c[nH]c2ccc(CCS(=O)(=O)c3ccccc3)cc12` [Eletriptan hydrobromide] came in with a nuclei count of 96.2.

The compound `CC(C)[N+](C)(CCOC(=O)C1c2ccccc2Oc2ccccc21)C(C)C` [Propantheline bromide] yielded a nuclei count of 103.

`COc1cc2c(Oc3ccc(NC(=O)C4(C(=O)Nc5ccc(F)cc5)CC4)cc3F)ccnc2cc1OCCCN1CCOCC1` gave a nuclei count of 12.

The compound `CC1=CC(=O)C(C(C)C)=CC1=O` [Thymoquinone] yielded a nuclei count of 103.

Compound `O=C(/C=C/c1ccc(O)cc1)CC(=O)/C=C/c1ccc(O)cc1` [bis-demethoxycurcumin] showed a nuclei count of 93.2.

With `C[S+]([O-])c1ccc(-c2nc(-c3ccc(F)cc3)c(-c3ccncc3)[nH]2)cc1` (stereo not drawn), the nuclei count is 96.8 and 103.

Take `COc1ccccc1Oc1c(NS(=O)(=O)c2ccc(C(C)(C)C)cc2)nc(-c2ncccn2)nc1OCCO` [Bosentan]: the nuclei count amounted to 112.

Compound `Nc1ccccc1S(N)(=O)=O` [2-Aminobenzenesulfonamide] gave a nuclei count of 109.

`OC[C@H]1O[C@@H](n2cnc3c(NC4CCCC4)ncnc32)[C@H](O)[C@@H]1O` [N6-Cyclopentyladenosine] yielded a nuclei count of 103.

Compound `CCOc1nc2cccc(C(=O)OCc3oc(=O)oc3C)c2n1Cc1ccc(-c2ccccc2-c2noc(=O)[nH]2)cc1` [Azilsartan Medoxomil (TAK-491)] gave a nuclei count of 101.

Take `O=C(O)c1cn(C2CC2)c2cc(N3CCNCC3)c(F)cc2c1=O` [Ciprofloxacin hydrochloride monohydrate]: the nuclei count worked out at 102.

`CC1(C)CCC(C)(C)c2cc(C3(c4ccc(C(=O)O)cc4)OCCO3)ccc21` came in with a nuclei count of 94.2.

As for `COc1ccc(NS(=O)(=O)c2sc3ccc(Cl)cc3c2C)cc1N1CCNCC1`, the nuclei count turned out to be 98.3.

The compound `COc1ccc(-c2cc(=S)ss2)cc1` [Anethole trithione] showed a nuclei count of 112.

`COc1ccc(-c2cc(=S)ss2)cc1` [Anethole-trithione] returned a nuclei count of 109.

For the compound `C#CCN[C@@H]1CCc2ccccc21` [Rasagiline mesylate], the nuclei count is 103.

In turn, `C1COC(NC(C2CC2)C2CC2)=N1` [Rilmenidine hemifumarate] came in with a nuclei count of 103.

`C1COC(NC(C2CC2)C2CC2)=N1` [Rilmenidine]: the nuclei count was determined as 93.6.

Compound `COc1cc(OC2CCN(C)CC2)ccc1Nc1ncc2c(n1)n(C1CCCC1)c(=O)n2C` showed a nuclei count of 87.4.

Regarding `N#C/C(=C\c1ccc(O)c(O)c1)C(=O)OCCc1cccs1`, the nuclei count is 99.

On to `CC(NC(=O)c1ccccc1/N=C/c1c(O)ccc2ccccc12)c1ccccc1` (stereo not drawn) [Sirtinol], for which the nuclei count came to 98.8 ± 2.1.

For `Cc1cccc(-c2[nH]c(C(C)(C)C)nc2-c2ccc3c(c2)OCO3)n1`, the nuclei count came out at 99.

As to `NC1CCN(c2cccc(Cl)n2)CC1`, the nuclei count came to 103.

Turning to `CC(C)(OCc1nn(Cc2ccccc2)c2ccccc12)C(=O)O` [Bindarit], the nuclei count amounted to 103.

Consider `Cc1ccc(S(=O)(=O)N[C@@H](Cc2ccccc2)C(=O)CCl)cc1`, for which the nuclei count stood at 77.2.

As for `COc1cc(C(=O)NCc2ccc(OCCN(C)C)cc2)cc(OC)c1OC` [Trimethobenzamide hydrochloride], the nuclei count is 94.5.

As for `CCCN1CCCC[C@H]1C(=O)Nc1c(C)cccc1C` [Ropivacaine HCl], the nuclei count is 103.

Regarding `CC(C)NCC(O)COc1ccc(CCOCC2CC2)cc1` (stereo not drawn) [Betaxolol hydrochloride], the nuclei count came out at 99.5 ± 6.9.

Regarding `Cc1c(C(=O)NN2CCCCC2)nn(-c2ccc(Cl)cc2Cl)c1-c1ccc(I)cc1`, the nuclei count turned out to be 92.9.

Turning to `CCc1nc(N)nc(N)c1-c1ccc(Cl)cc1` [Pyrimethamine], the nuclei count amounted to 88.8.

As to `CC(=O)[C@@]1(O)CC[C@H]2[C@@H]3C[C@H](C)C4=CC(=O)C=C[C@]4(C)[C@@]3(F)[C@@H](O)C[C@@]21C` [Fluorometholone], the nuclei count came out at 87.7.

In turn, `CCN(C(=O)c1c(O)c2c(Cl)cccc2n(C)c1=O)c1ccccc1` returned a nuclei count of 99.5.

In the case of `CN1CC(=O)N2[C@H](c3ccc4c(c3)OCO4)c3[nH]c4ccccc4c3C[C@@H]2C1=O` [Tadalafil (Cialis)], the nuclei count was 98.8.

Take `C1CCC(C(CC2CCCCN2)C2CCCCC2)CC1` (stereo not drawn) [Perhexiline maleate]: the nuclei count was determined as 5.66.

In the case of `COc1cc2c(cc1OC)CC(=O)N(CCCN(C)C[C@H]1Cc3cc(OC)c(OC)cc31)CC2` [Ivabradine HCl (Procoralan)], the nuclei count worked out at 97.9.

In the case of `C[C@H]1c2cccc(O)c2C(=O)C2=C(O)[C@]3(O)C(=O)C(C(N)=O)=C(O)[C@@H](N(C)C)[C@@H]3[C@@H](O)[C@@H]21` [Doxycycline hydrochloride], the nuclei count was determined as 108.

`C[C@H]1c2cccc(O)c2C(=O)C2=C(O)[C@]3(O)C(=O)C(C(N)=O)=C(O)[C@@H](N(C)C)[C@@H]3[C@@H](O)[C@@H]21` [Doxycycline HCl] yielded a nuclei count of 106.

On to `N[C@@H](CSC(c1ccccc1)(c1ccccc1)c1ccccc1)C(=O)O` [S-Trityl-L-cysteine], for which the nuclei count worked out at 95.

The compound `Cc1c(C(=O)NN2CCCCC2)nn(-c2ccc(Cl)cc2Cl)c1-c1ccc(Cl)cc1` registered a nuclei count of 85.5.

Turning to `O=C(CCCN1C(=O)c2cccc3cccc(c23)C1=O)NO` [Nullscript], the nuclei count was determined as 95.8.

Compound `C[C@](N)(Cc1ccc(O)c(O)c1)C(=O)O` [Methyldopa (L,-)] displayed a nuclei count of 103.

In the case of `COC(=O)/C=C/c1cccc(N(Cc2ccc(-c3ccc(N(C)C)cc3)cc2)C(=O)C2CCCCC2)c1` [Fexaramine], the nuclei count came to 100.

Consider `c1cnc(N2CCN(Cc3ccc4c(c3)OCO4)CC2)nc1` [Piribedil hydrochloride], for which the nuclei count worked out at 103.

For `c1cnc(N2CCN(Cc3ccc4c(c3)OCO4)CC2)nc1` [Piribedil], the nuclei count was 105.

The compound `CCOC(=O)c1cnc2ccc(-c3cncc(NS(=O)(=O)c4ccccc4)c3)cn12` registered a nuclei count of 18.8.

As to `Clc1ccc(C(Cn2ccnc2)OCc2ccsc2Cl)c(Cl)c1` (stereo not drawn) [Tioconazole], the nuclei count was found to be 100.

`CCCC1C(=O)N2C(N(C)C)=Nc3ccc(C)cc3N2C1=O` (stereo not drawn) [Azapropazone] showed a nuclei count of 103.

`O=C(O)CNC(=O)C(CS)Cc1ccccc1` (racemic) [DL-Thiorphan] showed a nuclei count of 113.

In the case of `O=C(O)CNC(=O)C(CS)Cc1ccccc1` (racemic) [Thiorphan], the nuclei count worked out at 88.1.

In turn, `N=C(N)c1ccc(N2CCN(C3CCN(CC(=O)O)CC3)CC2)cc1` returned a nuclei count of 104.

As for `CCOC(=O)O[C@]1(C(=O)OCCl)CC[C@H]2[C@@H]3CCC4=CC(=O)C=C[C@]4(C)[C@H]3[C@@H](O)C[C@@]21C` [Loteprednol etabonate], the nuclei count was 102.

With `CCc1cc2c(cc1N1CCC(N3CCOCC3)CC1)C(C)(C)c1[nH]c3cc(C#N)ccc3c1C2=O`, the nuclei count was found to be 103.

Take `CSc1cc2c(cc1C(F)(F)F)N(C(=O)Nc1cccnc1)CC2`: the nuclei count came out at 88.3.

Regarding `O=C(O)C(=O)O.[NH-][C@@H]1CCCC[C@H]1[NH-].[Pt+2]` [Oxaliplatin], the nuclei count was 76.1.

The compound `Cc1nn(-c2ccccc2)c(C)c1C=NN1CCN(Cc2ccccc2)CC1` showed a nuclei count of 83.

For the compound `CC(C)C(=O)Oc1ccc(CO)cc1[C@H](CCN(C(C)C)C(C)C)c1ccccc1` [Fesoterodine fumarate (Toviaz)], the nuclei count was determined as 98.7.

For `Cc1ccc(NC(=O)c2ccc(CN3CCN(C)CC3)cc2)cc1Nc1nccc(-c2cccnc2)n1` [Imatinib Mesylate], the nuclei count is 96.8.

As for `Cc1ccc(NC(=O)c2ccc(CN3CCN(C)CC3)cc2)cc1Nc1nccc(-c2cccnc2)n1` [Imatinib (STI571)], the nuclei count turned out to be 99.1.

For the compound `Cc1ccc(NC(=O)c2ccc(CN3CCN(C)CC3)cc2)cc1Nc1nccc(-c2cccnc2)n1` [Imatinib mesylate], the nuclei count amounted to 93.1 ± 2.5.

In the case of `Cc1ccc(NC(=O)c2ccc(CN3CCN(C)CC3)cc2)cc1Nc1nccc(-c2cccnc2)n1` [Imatinib], the nuclei count stood at 101.

On to `Cc1cc2nc3c(=O)[nH]c(=O)nc-3n(C)c2cc1C=O`, for which the nuclei count came out at 51.4.

Turning to `C[C@]1(O)C[C@@H](c2nc(-c3ccc4ccc(-c5ccccc5)nc4c3)c3c(N)nccn32)C1` [Linsitinib (OSI-906)], the nuclei count was 91.1.

Turning to `C[C@]1(O)C[C@@H](c2nc(-c3ccc4ccc(-c5ccccc5)nc4c3)c3c(N)nccn32)C1` [OSI-906 (Linsitinib)], the nuclei count was 99.

For `O=C(C1CCCCC1)N1CC(=O)N2CCc3ccccc3C2C1` (stereo not drawn) [Praziquantel], the nuclei count was found to be 97.7.

For `C[C@@H]1CCO[C@H]2Cn3cc(C(=O)NCc4ccc(F)cc4F)c(=O)c(O)c3C(=O)N12`, the nuclei count was 99.8.

`C(=C\c1ccccc1)/CN1CCN(C(c2ccccc2)c2ccccc2)CC1` [Cinnarizine] displayed a nuclei count of 107.

As for `COc1ccc2c(c1)c(CC(=O)O)c(C)n2C(=O)c1ccc(Cl)cc1` [Indomethacin], the nuclei count amounted to 98.1 ± 10.

Compound `Nc1nc2ccc(OC(F)(F)F)cc2s1` [Riluzole] showed a nuclei count of 101.

Turning to `Nc1nc2ccc(OC(F)(F)F)cc2s1` [Riluzole hydrochloride], the nuclei count came to 95.29 ± 0.2.

The compound `CN1CCC(=C2c3ccccc3CCc3cccnc32)CC1` [Azatadine dimaleate] registered a nuclei count of 109.

With `CNC(=O)c1cc(Oc2ccc(NC(=O)Nc3cc(C(C)(C)C)nn3-c3ccc4ncccc4c3)c(F)c2)ccn1` [DCC-2036 (Rebastinib)], the nuclei count is 70.1.

`C/C=C1\C(=O)C[C@H]2[C@@H]3CCC4=CC(=O)CC[C@]4(C)[C@H]3CC[C@]12C` [Guggulsterone]: the nuclei count was 90.2.

Compound `C/C=C1\C(=O)C[C@H]2[C@@H]3CCC4=CC(=O)CC[C@]4(C)[C@H]3CC[C@]12C` [Z-Guggulsterone] showed a nuclei count of 101.

Turning to `CC(C)(C)NCC(O)COc1cccc2c1CCC(=O)N2` (stereo not drawn) [Carteolol hydrochloride], the nuclei count came to 105.

Compound `N#Cc1cc2c(OCC(O)CN3CCN(C(c4ccccc4)c4ccccc4)CC3)cccc2[nH]1` (stereo not drawn) had a nuclei count of 90.9.

For `C=C1c2c(Cl)ccc(O)c2C(=O)C2=C(O)[C@]3(O)C(=O)C(C(N)=O)=C(O)[C@@H](N(C)C)[C@@H]3[C@@H](O)[C@H]12.O=C(O)c1cc(S(=O)(=O)O)ccc1O` [Meclocycline sulfosalicylate], the nuclei count was 105.
